In all, about 310,000 compounds went through this assay and about 14,000 (4.5%) showed an effect of 50% or more. The effect is printed as a negative number. The list shows a part of the results.
Target: human ether-à-go-go-related gene (hERG) potassium channel (human, UniProt Q12809)
Assay: primary screen, population patch clamp on CHO cells stably expressing hERG
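Note: peak tail current of the secondary pulse compared with the same well before compound.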

Sequence of human ether-à-go-go-related gene (hERG) potassium channel (Q12809 whole entry, looked up): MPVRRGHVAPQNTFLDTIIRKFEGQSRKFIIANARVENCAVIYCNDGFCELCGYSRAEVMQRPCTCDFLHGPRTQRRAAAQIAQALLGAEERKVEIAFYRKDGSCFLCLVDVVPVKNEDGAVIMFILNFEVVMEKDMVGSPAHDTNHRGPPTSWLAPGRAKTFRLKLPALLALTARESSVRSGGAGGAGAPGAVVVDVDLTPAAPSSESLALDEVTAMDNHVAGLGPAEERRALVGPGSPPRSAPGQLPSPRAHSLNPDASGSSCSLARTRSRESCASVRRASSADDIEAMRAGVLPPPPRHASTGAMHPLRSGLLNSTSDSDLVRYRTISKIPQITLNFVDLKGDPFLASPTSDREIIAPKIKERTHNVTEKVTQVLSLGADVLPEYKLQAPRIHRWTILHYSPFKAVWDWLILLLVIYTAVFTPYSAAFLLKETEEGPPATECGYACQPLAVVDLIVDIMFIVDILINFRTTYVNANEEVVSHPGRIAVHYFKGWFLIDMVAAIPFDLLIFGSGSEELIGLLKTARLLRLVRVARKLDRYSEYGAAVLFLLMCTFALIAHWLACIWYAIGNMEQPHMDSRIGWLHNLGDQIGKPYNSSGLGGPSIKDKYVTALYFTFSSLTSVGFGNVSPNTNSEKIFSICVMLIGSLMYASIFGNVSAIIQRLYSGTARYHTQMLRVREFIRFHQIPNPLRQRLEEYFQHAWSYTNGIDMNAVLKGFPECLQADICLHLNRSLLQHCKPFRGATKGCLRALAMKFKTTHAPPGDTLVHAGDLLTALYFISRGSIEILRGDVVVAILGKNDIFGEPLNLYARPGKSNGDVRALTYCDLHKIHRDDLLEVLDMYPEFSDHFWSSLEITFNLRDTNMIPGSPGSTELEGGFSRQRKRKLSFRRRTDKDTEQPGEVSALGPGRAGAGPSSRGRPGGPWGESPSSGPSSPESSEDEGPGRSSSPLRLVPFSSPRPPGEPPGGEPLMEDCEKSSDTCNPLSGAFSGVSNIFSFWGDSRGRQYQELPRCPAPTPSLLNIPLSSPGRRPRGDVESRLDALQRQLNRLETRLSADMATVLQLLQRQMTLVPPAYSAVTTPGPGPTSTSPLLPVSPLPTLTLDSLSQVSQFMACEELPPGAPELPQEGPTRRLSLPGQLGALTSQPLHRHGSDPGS

Structure (SMILES)	hERG current change (%, negative = inhibition) at 10uM [%]
COC(=O)C1=C(C)N(C)C(=O)/C1=C\c1cccs1	7.88
COc1cccc(-c2cc(C(F)(F)F)nc(-n3ccc([N+](=O)[O-])n3)n2)c1	-6.33
CCOc1ncccc1C(=O)NCCCSc1ccccc1	-35.9
CCOc1ccc2nc(NC(=O)Cn3cnc4c3c(=O)n(C)c(=O)n4C)sc2c1	-41.9
O=C(CNC(=O)c1ccc(Cl)cc1)Nc1ccc(Br)cc1C(=O)c1ccccc1	-9.18
COC(=O)c1c(NC(=O)CCC(=O)O)sc2c1CCCCC2	15.2
CCCOc1ccc(N2C(=O)CC(N3CCN(C(=O)c4ccco4)CC3)C2=O)cc1 (centres unmarked)	-35.8
CCC(=O)Nc1c(S(=O)(=O)c2ccc(C)cc2)c2nc3ccccc3nc2n1C(C)c1ccccc1 (centres unmarked)	-14.9
COc1ccc(CNC(=O)C[C@H]2C(=O)N(Cc3ccccc3)C[C@@H]2Cc2ccccc2)cc1	2.76
O=C(CNC(=O)c1ccc2c(c1)OCO2)N/N=C/c1cccc([N+](=O)[O-])c1	6.21
CCc1ccc2c(CSc3nnnn3C)cc(=O)oc2c1	-68.1
Cc1ccc2c(c1)sc1nc(=O)ccn12	-2.62
CCCCN(Cc1cc2cc(OC)ccc2[nH]c1=O)S(=O)(=O)c1ccc(C)cc1	-2.39
COc1ccc(N2CCN(C(=O)CSc3nnc(C)c(=O)[nH]3)CC2)cc1	-2.91
O=C(CNS(=O)(=O)c1ccc(F)cc1)Nc1ccc(C(F)(F)F)cc1	-5.85
Cc1nc(Nc2ccc(Cl)cc2)c2nnn(Cc3ccccc3)c2n1	21.2
CC(NC(=O)CSc1nc(=O)cc(N)n1CCc1ccccc1)c1ccccc1 (centres unmarked)	1.91
CC(C)NS(=O)(=O)c1ccc(NC(=O)Cc2ccsc2)cc1	16.5
O=C(CCc1ccc(Oc2cc([N+](=O)[O-])cc([N+](=O)[O-])c2)cc1)N1CCCCCC1	-30.2
COc1ccc(S(=O)(=O)N2CCC(C(=O)NCc3cccc(OC)c3)CC2)cc1	-17.4
CCOc1cc(NC(=S)NCCCN2CCOCC2)c(OCC)cc1NC(=O)c1ccc(OC)cc1	-0.532
CCOc1ccc(N2C(=O)CN(O)C=C3N=c4ccccc4=C32)cc1	4.61

Structure (SMILES)	hERG current change (%, negative = inhibition) at 10uM [%]
COc1cccc(CN2CC(C(=O)NCCOc3cccnc3)CCC2=O)c1 (centres unmarked)	20.2
O=C(COc1cccc(C(F)(F)F)c1)Nc1ccccc1N1CCCCC1	3.44
CCN(CC)CCNC(=O)C1CCCCN1S(=O)(=O)c1cccc([N+](=O)[O-])c1 (centres unmarked)	-16.3
CC1CCCN(CCC(=O)c2ccc(Br)cc2)C1.Cl (centres unmarked)	-64.4
CCOC(=O)CNC(=S)n1cnc(N)n1	19.9
N#Cc1cc([N+](=O)[O-])ccc1Oc1ccc(-c2nnco2)cc1	-7.07
Cc1nc2ccc(NC(=O)c3ccc([N+](=O)[O-])cc3)cc2[nH]1	-20.6
O=c1nc(N2CCOCC2)nc(N/N=C/c2ccc3c(c2)OCO3)[nH]1	4.84
CCOC(=O)/C=C/C(=O)N1CCN(C(=O)/C=C/C(=O)OCC)CC1	-30.2
CN(C)CCCN(C(=O)c1ccc(S(=O)(=O)N2CCc3ccccc3C2)cc1)c1nc2c(F)cccc2s1.Cl	4.85
O=C(C/C=N/OCc1ccc(Cl)cc1)c1cnc(-c2ccccc2)s1	12.5
CCN(CC)c1ccc(/C=N/N2CCN(Cc3ccccc3)CC2)c(O)c1	-5.02
Cc1nc2ccccc2c(C)c1CC(=O)N(C)CC(=O)Nc1cccc(F)c1	-55.9
COc1ccc(CN(C2CCCC2)S(=O)(=O)c2ccc(-n3cnnn3)cc2)cc1OC	-64
O=C(CSc1ncc(-c2ccccc2)[nH]1)Nc1cccc(O)c1	-4.45
Cc1ccc(-n2nc(C)c(Sc3ccccc3[N+](=O)[O-])c2N)cc1	-17.2
CCc1nnc(NC(=O)CSc2ccc(-c3nc4ccc(C)cc4[nH]3)cn2)s1	6.54
Nc1nonc1C(=O)OCC(=O)N1CCCCC1	13.7
Cc1cc(C)n(Cc2cccc(C(=O)N/N=C/c3ccncc3)c2)n1	9.21
Cc1ccccc1NC(=O)Nc1ccccc1C(=O)NCc1ccccc1	-3.26
Cc1ccc(NC2CCCN(C(=O)CCC3(C)CC3)C2)cc1C (centres unmarked)	-23.1
O=C(CSc1ccc2nnc(CCNC(=O)c3ccccc3)n2n1)NC1CCCC1	17.7

Structure (SMILES)	hERG current change (%, negative = inhibition) at 10uM [%]
O=C1C(=O)N(O)C2CCCCC2N1O (centres unmarked)	-2
O=c1c2cc(Cl)cc(Cl)c2nc2n1CCC2	15.1
CCn1c(SCC(=O)Nc2sc3c(c2C#N)CCCC3)nnc1-c1ccco1	-15
Cc1cccc(N(C(=O)c2csnn2)C(C(=O)NC(C)(C)C)c2cccnc2)c1 (centres unmarked)	22.3
COc1ccccc1N=Cc1c(O)n(C)c(=O)n(C)c1=O	-0.384
COC(=O)C1=C(c2ccc3ccccc3c2)C[C@@H]2CC[C@H]1N2C(=O)NC1Cc2ccccc2C1	14.2
O=C(O)C1C2C=CC(C2)C1C(=O)Nc1cccc(C(=O)N2CCCCC2)c1 (centres unmarked)	-9.28
CC(C)CC(C(=O)Nc1ccccc1)N1C(=O)C2C3C=CC(C3)C2C1=O (centres unmarked)	9.56
Cc1ccc(C(=O)Nc2ccc(S(=O)(=O)Nc3ncccn3)cc2)cc1[N+](=O)[O-]	13.4
COc1ccc(NC(=S)NCC(c2ccco2)N2CCCC2)cc1 (centres unmarked)	-12.2
C=CCn1c(SC2CCOC2=O)nc2scc(C3CC3)c2c1=O (centres unmarked)	-64.6
CCOCCCNC(=S)N(CCO)Cc1cc2cc3c(cc2[nH]c1=O)OCCO3	18
O=c1[nH]c(SCc2ccc(Cl)cc2)nc2c1CCC2	2.94
O=C(NCc1ccc2c(c1)OCO2)C1CCN(Cc2cnn(-c3ccccc3)c2-n2cccc2)CC1	-49.2
CCCCCCCSc1cc(OC)c(CCNC)cc1OC.O=C(O)/C=C\C(=O)O	-41.3
Cc1cccc(N2CC(C)Cn3c2nc2c3c(=O)n(CC(=O)OCc3ccccc3)c(=O)n2C)c1 (centres unmarked)	-7.1
O=C(NCC(=O)N1CCN(c2ccccc2F)CC1)c1ccc(Br)o1	-39.1
CN1CCN(S(=O)(=O)c2ccc3[nH]c(=O)oc3c2)CC1	-6.28
C=CCN(Cc1nc(-c2cc(OC)c3c(c2)OCO3)oc1C)C1CCS(=O)(=O)C1 (centres unmarked)	8.22
CC(OC(=O)C1=NNC(=O)CC1)C(=O)Nc1ncc(Cl)cc1Cl (centres unmarked)	6.85
CCCN1C=CC(=CC=C(C#N)C#N)C=C1	-3.42
Cc1ccccc1N(CC(=O)N/N=C/c1ccc(Cl)cc1)C(=O)c1ccccc1	3.66

Structure (SMILES)	hERG current change (%, negative = inhibition) at 10uM [%]
Cc1sc(NC(=O)c2ccc(Br)s2)c(C(N)=O)c1C	17.5
Cn1c(-c2ccccc2)n[nH]c1=S	-19.1
C=CCn1c(N)c(C(=O)Nc2ccc(C)c(C)c2)c2nc3ccccc3nc21	16.7
CC(C)(C)c1ccc(/C=C2\Oc3cc(OC(=O)N4CCOCC4)ccc3C2=O)cc1	1.02
CCN(CC(=O)Nc1c(F)cccc1F)C(=O)CCc1nc2cc(S(=O)(=O)N(C)C)ccc2n1CC	10.6
O=C(NCCCN1CCOCC1)C(=O)NCCc1ccccc1	11.2
N/C(=N\OC(=O)Cc1ccc(-c2ccccc2)cc1)c1ccncc1	18
O=C1CCc2cc(S(=O)(=O)N3CCN(c4cccc(C(F)(F)F)c4)CC3)ccc2N1	-9.64
CCc1c(C)c2c(C)[nH]nc2oc1=O	0.753
COc1ccc(-c2cc3nc(C)c(CCC(=O)NCc4ccco4)c(C)n3n2)c(OC)c1	-12.9
Cc1cc(N2C(=O)C3CC=CCC3C2=O)cc(C)c1Br (centres unmarked)	14.7
O=C(NCC(c1ccco1)N1CCc2ccccc21)c1ccc([N+](=O)[O-])cc1 (centres unmarked)	-18.3
COc1ccc(Nc2nc3c([nH]2)c(=O)[nH]c(=O)n3C)cc1	16.3
CC1=C(C)CC(C(=O)NCCc2ccccc2)C(C(=O)O)C1 (centres unmarked)	-10.8
CCN(CC)C(=O)CN(c1ccc2c(c1)OCO2)S(C)(=O)=O	-3.23
O=C(CCNC(=O)c1ccc(Cl)cc1)Nc1ccc(S(=O)(=O)N2CCOCC2)cc1	-6.76
COc1ccc(NC(=O)CC2C(=O)N(c3ccc(OC)cc3)C(=O)N2CCN2CCN(C)CC2)cc1 (centres unmarked)	6.28
O=C(Nc1c2c(nn1-c1ccc(F)cc1)CS(=O)(=O)C2)C12CC3CC(CC(C3)C1)C2	3.32
CCOC(=O)C1=C(C)N(C)C(=S)NC1c1cc(OC)ccc1OC (centres unmarked)	3.73
O=C(NCc1ccccc1Cl)C1CCN(S(=O)(=O)c2cccc3nonc23)CC1	16.4

From publication PMC4336329 (PLoS ONE, 2015)
